Residue numbers refer to the chain shown, from its start. Results are given in words; binding and its absence hold for the method and conditions named. Binding seen in cells or lysates may run through a third protein. Some binding calls cover weakened binding; strength is not graded here. Where a sequence is shown, tags or fusion partners need not be part of it.
Assays:
Assay in all cases: co-IP; 293 T cells transfected with pFlag CMV2 Rad21 constructs; IP of Flag-Rad21 (Flag mAb agarose beads) from whole cell lysate, blots of endogenous cohesin subunits and associated proteins
[1] = target: T1, Flag-Rad21 quadruple mutant (QM) R69A K70A K72A Y73A, full length (human) (UniProt O60216)
T1 sequence: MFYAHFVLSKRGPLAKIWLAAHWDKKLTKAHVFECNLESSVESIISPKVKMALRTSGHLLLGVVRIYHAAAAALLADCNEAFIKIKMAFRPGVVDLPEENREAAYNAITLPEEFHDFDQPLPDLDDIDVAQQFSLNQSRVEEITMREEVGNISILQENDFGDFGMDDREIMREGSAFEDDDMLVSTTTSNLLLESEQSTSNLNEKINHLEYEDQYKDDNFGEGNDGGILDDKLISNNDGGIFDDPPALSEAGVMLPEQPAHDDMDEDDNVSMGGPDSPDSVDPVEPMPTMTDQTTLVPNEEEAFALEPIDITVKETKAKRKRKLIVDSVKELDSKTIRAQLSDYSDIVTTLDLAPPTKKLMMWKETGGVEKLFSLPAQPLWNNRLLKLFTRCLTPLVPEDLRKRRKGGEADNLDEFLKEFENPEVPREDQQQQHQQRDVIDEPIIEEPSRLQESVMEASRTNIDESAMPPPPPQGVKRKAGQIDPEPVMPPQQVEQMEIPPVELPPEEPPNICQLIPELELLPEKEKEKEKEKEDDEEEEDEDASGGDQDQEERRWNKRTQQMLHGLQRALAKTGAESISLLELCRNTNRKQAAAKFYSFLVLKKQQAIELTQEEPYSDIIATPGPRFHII

[2] = target: T2, Flag-Rad21 Del(383–392 aa), full length devoid of 383–392 aa (human) (UniProt O60216)
T2 sequence: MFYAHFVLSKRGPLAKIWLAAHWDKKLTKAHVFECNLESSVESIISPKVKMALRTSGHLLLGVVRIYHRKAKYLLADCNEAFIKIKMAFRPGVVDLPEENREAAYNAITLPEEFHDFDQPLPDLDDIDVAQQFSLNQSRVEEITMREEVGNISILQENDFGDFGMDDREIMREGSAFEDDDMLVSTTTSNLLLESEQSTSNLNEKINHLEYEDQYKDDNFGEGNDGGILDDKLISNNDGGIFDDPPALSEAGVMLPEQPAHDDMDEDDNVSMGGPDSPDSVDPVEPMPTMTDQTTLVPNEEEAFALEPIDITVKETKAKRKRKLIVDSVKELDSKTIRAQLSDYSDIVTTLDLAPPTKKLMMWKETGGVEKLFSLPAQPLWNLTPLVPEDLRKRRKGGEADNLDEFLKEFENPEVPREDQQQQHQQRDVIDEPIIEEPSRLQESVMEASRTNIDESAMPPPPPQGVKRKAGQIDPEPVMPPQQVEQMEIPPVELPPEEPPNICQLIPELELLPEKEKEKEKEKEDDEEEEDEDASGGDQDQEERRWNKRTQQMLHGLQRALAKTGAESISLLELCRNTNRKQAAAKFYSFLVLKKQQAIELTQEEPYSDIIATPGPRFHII

[3] = target: T3, Flag-Rad21 single mutant (SM) L385A (human) (UniProt O60216)
T3 sequence: T1 sequence with A69R, A70K, A72K, A73Y, L385A

[4] = target: T4, Flag-Rad21 WT (full length) in pFlag CMV2 (human) (UniProt O60216)
T4 sequence: T1 sequence with A69R, A70K, A72K, A73Y

Measured: binding

B1: endogenous Smc1 (protein, UniProt Q14683 1-1233)
chain: MGFLKLIEIENFKSYKGRQIIGPFQRFTAIIGPNGSGKSNLMDAISFVLGEKTSNLRVKTLRDLIHGAPVGKPAANRAFVSMVYSEEGAEDRTFARVIVGGSSEYKINNKVVQLHEYSEELEKLGILIKARNFLVFQGAVESIAMKNPKERTALFEEISRSGELAQEYDKRKKEMVKAEEDTQFNYHRKKNIAAERKEAKQEKEEADRYQRLKDEVVRAQVQLQLFKLYHNEVEIEKLNKELASKNKEIEKDKKRMDKVEDELKEKKKELGKMMREQQQIEKEIKEKDSELNQKRPQYIKAKENTSHKIKKLEAAKKSLQNAQKHYKKRKGDMDELEKEMLSVEKARQEFEERMEEESQSQGRDLTLEENQVKKYHRLKEEASKRAATLAQELEKFNRDQKADQDRLDLEERKKVETEAKIKQKLREIEENQKRIEKLEEYITTSKQSLEEQKKLEGELTEEVEMAKRRIDEINKELNQVMEQLGDARIDRQESSRQQRKAEIMESIKRLYPGSVYGRLIDLCQPTQKKYQIAVTKVLGKNMDAIIVDSEKTGRDCIQYIKEQRGEPETFLPLDYLEVKPTDEKLRELKGAKLVIDVIRYEPPHIKKALQYACGNALVCDNVEDARRIAFGGHQRHKTVALDGTLFQKSGVISGGASDLKAKARRWDEKAVDKLKEKKERLTEELKEQMKAKRKEAELRQVQSQAHGLQMRLKYSQSDLEQTKTRHLALNLQEKSKLESELANFGPRINDIKRIIQSREREMKDLKEKMNQVEDEVFEEFCREIGVRNIREFEEEKVKRQNEIAKKRLEFENQKTRLGIQLDFEKNQLKEDQDKVHMWEQTVKKDENEIEKLKKEEQRHMKIIDETMAQLQDLKNQHLAKKSEVNDKNHEMEEIRKKLGGANKEMTHLQKEVTAIETKLEQKRSDRHNLLQACKMQDIKLPLSKGTMDDISQEEGSSQGEDSVSGSQRISSIYAREALIEIDYGDLCEDLKDAQAEEEIKQEMNTLQQKLNEQQSVLQRIAAPNMKAMEKLESVRDKFQETSDEFEAARKRAKKAKQAFEQIKKERFDRFNACFESVATNIDEIYKALSRNSSAQAFLGPENPEEPYLDGINYNCVAPGKRFRPMDNLSGGEKTVAALALLFAIHSYKPAPFFVLDEIDAALDNTNIGKVANYIKEQSTCNFQAIVISLKEEFYTKAESLIGVYPEQGDCVISKVLTFDLTKYPDANPNPNEQ
binds: [1] | [2] | [3] | [4]

From paper PMC3709894
